Some of the results follow. The full chains were built here from the parent and the listed change. Inactive controls read about 0.05.
B1: TEV protease; numbered along this chain (parent)
chain: MGESLFKGPRDYNPISSSICHLTNESDGHTTSLYGIGFGPFIITNKHLFRRNNGTLVVQSLHGVFKVKDTTTLQQHLVDGRDMIIIRMPKDFPPFPQKLKFREPQREERICLVTTNFQTKSMSSMVSDTSCTFPSGDGIFWKHWIQTKDGQCGSPLVSTRDGFIVGIHSASNFTNTNNYFTSVPKNFMELLTNQEAQQWVSGWRLNADSVLWGGHKVFMVKPEEPFQPVKEATQL

Variants of: B1
Experiment: raw area under fraction-flipped curve 0-4 h after induction (AUC4h, not background-subtracted), DNA-recorder readout of cleavage of the substrate (dimensionless); higher = more cleavage of the substrate by the protease variant
Details: temperature: 34 °C; time window: 0-4 h after rhamnose induction
Description: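 In vivo DNA recorder in E. coli TOP10(DE3) ΔrhaA at 34 °C. Each TEVp single-site mutant (parent TEVp 0) is paired with a single-site variant of the 7-mer TEVs (canonical ENLYFQ|S). The substrate sits between flexible linkers in a Bxb1-sfGFP-TEVs-SsrA fusion, so cleavage stabilises Bxb1 and speeds flipping of a recombination array, read by NGS. The value is the raw area under the fraction-flipped curve over 0-4 h after rhamnose induction (AUC4h), with ≥20 reads per time point. It is not background-subtracted; inactive controls average about 0.047.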
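Note: Bxb1 expression induced with 0.2% (w/v) L-rhamnose at OD600 near 0.5, cultures sampled hourly, flipped fraction per protease–substrate barcode pair counted by paired-end Illumina sequencing.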

Variant | area with substrate ENAYFQS | area with substrate ENCYFQS | area with substrate ENDYFQS | area with substrate ENGYFQS | area with substrate ENIYFQS | area with substrate ENNYFQS | area with substrate ENQYFQS | area with substrate ENRYFQS | area with substrate ENVYFQS | area with substrate ENYYFQS | area with substrate ENEYFQS | area with substrate ENKYFQS | area with substrate ENPYFQS | area with substrate ENSYFQS | area with substrate ENTYFQS | area with substrate ENFYFQS | area with substrate ENMYFQS | area with substrate ENHYFQS | area with substrate ENWYFQS
N116R | 0.097 | 0.0393 | 0.0348 | 0.0798 | 0.102 | 0.0535 | 0.0556 | 0.0412 | 0.0614 | 0.0495 |  |  |  |  |  |  |  |  | 
Q105H | 0.0547 | 0.0634 | 0.0603 | 0.0802 | 0.145 | 0.0664 | 0.0654 | 0.052 |  | 0.0574 | 0.0618 | 0.0735 | 0.0376 | 0.0576 | 0.0596 |  |  |  | 
M88K | 0.0555 | 0.126 | 0.0561 |  |  | 0.0534 | 0.0659 |  |  |  | 0.0507 |  |  | 0.0551 |  | 0.0475 | 0.0653 |  | 
I110C | 0.051 | 0.0718 | 0.0603 |  | 0.173 | 0.0557 | 0.0555 | 0.048 | 0.0784 | 0.0626 | 0.0585 |  | 0.064 | 0.0633 | 0.0653 | 0.078 | 0.0836 | 0.0546 | 
K120R | 0.0477 | 0.0673 | 0.0595 | 0.0648 |  |  | 0.047 | 0.0595 | 0.09 |  | 0.0761 | 0.0587 | 0.0635 | 0.0615 | 0.0663 | 0.0588 |  |  | 
K120M | 0.0692 | 0.0623 | 0.042 | 0.0443 | 0.117 |  | 0.0605 | 0.059 | 0.0891 |  | 0.0692 |  | 0.053 | 0.0755 | 0.0762 |  |  | 0.0886 | 0.0588
C111V | 0.0527 |  | 0.0544 | 0.0585 | 0.129 | 0.0601 | 0.0616 | 0.041 | 0.0772 | 0.0827 | 0.0569 |  |  | 0.0661 | 0.0571 | 0.067 | 0.0693 | 0.0414 | 
C111R | 0.0645 | 0.0516 | 0.0533 |  |  | 0.0665 | 0.0654 |  | 0.0957 |  | 0.0481 |  |  | 0.0742 |  |  |  |  | 
R87P | 0.0534 | 0.0582 |  |  |  |  | 0.058 |  | 0.075 | 0.0617 | 0.0571 |  |  | 0.0657 |  |  |  | 0.056 | 
R87G | 0.0445 |  |  | 0.0553 |  | 0.0414 | 0.0591 | 0.0939 |  |  | 0.0111 |  | 0.0514 |  |  |  |  |  | 0.0041
T70Y | 0.0688 | 0.0622 | 0.0539 | 0.0658 | 0.0665 | 0.0637 | 0.0561 | 0.0491 | 0.0464 |  | 0.0675 |  | 0.0491 | 0.0665 | 0.0725 | 0.0544 |  | 0.0646 | 0.005
T70V | 0.076 | 0.0543 |  |  | 0.0715 |  |  | 0.0843 | 0.0733 | 0.0627 | 0.0677 |  | 0.0827 |  | 0.0598 | 0.0643 | 0.0756 | 0.0538 | 
T119P | 0.0476 | 0.0714 | 0.0307 |  |  |  | 0.0514 |  | 0.0893 |  |  |  |  | 0.0804 | 0.0639 |  | 0.0998 |  | 0.0473
F101T | 0.0576 | 0.0975 | 0.0677 | 0.038 | 0.0432 |  | 0.0647 | 0.0497 | 0.0617 |  | 0.0568 | 0.0514 |  | 0.0666 |  | 0.0428 | 0.0645 | 0.0578 | 
F117W | 0.0612 |  | 0.058 |  |  | 0.0626 | 0.0611 | 0.053 | 0.116 | 0.059 | 0.0559 |  |  |  |  |  |  |  | 
G80F | 0.065 | 0.0724 | 0.0612 | 0.0729 |  | 0.0457 |  | 0.0804 | 0.0629 |  | 0.0593 | 0.0875 |  | 0.0618 | 0.0717 |  | 0.0634 |  | 0.0472
G80Y | 0.0606 |  | 0.0687 |  |  |  | 0.0764 | 0.0386 |  |  | 0.0518 |  |  | 0.0659 | 0.0634 |  | 0.0767 | 0.0467 | 
L77M | 0.0572 | 0.0525 |  | 0.0582 |  | 0.0721 | 0.0646 |  | 0.0608 | 0.061 | 0.0664 |  | 0.0643 | 0.0612 | 0.0622 | 0.0757 |  | 0.0588 | 
L112P | 0.0566 | 0.0519 | 0.0555 | 0.0576 |  | 0.0567 | 0.0494 |  | 0.089 | 0.0508 | 0.0592 |  | 0.0505 | 0.0562 | 0.0599 | 0.0509 | 0.0607 | 0.0405 | 0.054
P96G | 0.0561 |  |  | 0.0711 |  |  |  | 0.0743 | 0.0772 |  |  |  | 0.068 | 0.0726 | 0.0558 |  |  |  | 
E107F | 0.0566 |  | 0.0701 | 0.0624 | 0.0855 |  | 0.0644 | 0.0383 | 0.0629 | 0.0555 |  |  |  | 0.0461 | 0.0607 |  |  | 0.0525 | 
T114C | 0.0795 | 0.0684 | 0.0424 | 0.0697 |  |  | 0.0688 |  | 0.0781 |  | 0.0625 |  |  |  |  |  | 0.0852 | 0.0523 | 
R106L | 0.075 |  | 0.0549 |  | 0.0932 | 0.0843 | 0.0572 |  | 0.0769 |  |  |  | 0.067 | 0.0455 |  |  | 0.0725 |  | 
K90C | 0.0482 | 0.0665 | 0.0661 |  | 0.0978 | 0.0641 | 0.0678 | 0.0337 | 0.0855 | 0.066 | 0.0627 | 0.0536 | 0.048 | 0.0516 | 0.0896 | 0.0623 | 0.0789 |  | 0.0396
K90Y | 0.0664 | 0.0782 | 0.0545 | 0.0551 |  | 0.0684 |  | 0.0515 | 0.0793 | 0.0558 | 0.0498 |  |  |  | 0.0429 |  |  |  | 0.0426
K90Q | 0.0597 |  | 0.0515 | 0.0569 | 0.0766 |  | 0.0594 | 0.106 | 0.0988 |  |  |  | 0.0579 | 0.0696 | 0.0715 | 0.0662 |  | 0.0477 | 
Q75H | 0.048 | 0.0594 | 0.0558 | 0.0701 |  | 0.0615 | 0.0798 | 0.0587 | 0.0582 | 0.0579 | 0.0587 | 0.0599 | 0.0771 | 0.0685 | 0.0559 | 0.0613 | 0.0521 | 0.0618 | 0.0529
Q75T | 0.0813 | 0.0646 | 0.0783 |  |  | 0.036 | 0.0495 | 0.0701 | 0.0846 |  | 0.0325 | 0.0726 |  | 0.116 | 0.0692 | 0.0703 |  | 0.0577 | 
F95T | 0.0394 | 0.0599 | 0.0483 |  |  |  |  | 0.0616 |  | 0.0609 |  |  |  |  |  |  | 0.0675 |  | 
